From the supplement of paper PMC12217912
This is one part of the list. Sequences were assembled here from the parent chain. Inactive controls read about 0.05.

B1: TEV protease; numbered along this chain (parent)
chain: MGESLFKGPRDYNPISSSICHLTNESDGHTTSLYGIGFGPFIITNKHLFRRNNGTLVVQSLHGVFKVKDTTTLQQHLVDGRDMIIIRMPKDFPPFPQKLKFREPQREERICLVTTNFQTKSMSSMVSDTSCTFPSGDGIFWKHWIQTKDGQCGSPLVSTRDGFIVGIHSASNFTNTNNYFTSVPKNFMELLTNQEAQQWVSGWRLNADSVLWGGHKVFMVKPEEPFQPVKEATQL

Variants of: B1
Assay: raw area under fraction-flipped curve 0-4 h after induction (AUC4h, not background-subtracted), DNA-recorder readout of cleavage of the substrate (dimensionless); higher = more cleavage of the substrate by the protease variant
Settings: temperature: 34 °C; time window: 0-4 h after rhamnose induction
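Further: Bxb1 expression induced with 0.2% (w/v) L-rhamnose at OD600 near 0.5, cultures sampled hourly, flipped fraction per protease–substrate barcode pair counted by paired-end Illumina sequencing.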

| Variant | area with substrate ENLYCQS | area with substrate ENLYDQS | area with substrate ENLYGQS | area with substrate ENLYHQS | area with substrate ENLYMQS | area with substrate ENLYNQS | area with substrate ENLYPQS | area with substrate ENLYSQS | area with substrate ENLYEQS | area with substrate ENLYIQS | area with substrate ENLYQQS | area with substrate ENLYVQS | area with substrate ENLYWQS | area with substrate ENLYKQS | area with substrate ENLYRQS | area with substrate ENLYTQS | area with substrate ENLYYQS | area with substrate ENLYLQS |
| --- | --- | --- | --- | --- | --- | --- | --- | --- | --- | --- | --- | --- | --- | --- | --- | --- | --- | --- |
| K216E | 0.0633 | 0.0614 | 0.055 | 0.0571 | 0.0649 | 0.0622 | 0.0732 | 0.0761 | – | – | – | – | – | – | – | – | – | – |
| N206Q | 0.0781 | 0.0644 | – | 0.0633 | – | 0.069 | 0.0539 | 0.0799 | 0.0643 | 0.108 | 0.0702 | 0.108 | 0.083 | – | – | – | – | – |
| H76Y | – | 0.0932 | 0.0665 | – | – | 0.0704 | 0.0731 | 0.0779 | 0.0556 | 0.0937 | 0.061 | 0.0927 | – | 0.0453 | 0.0601 | 0.0772 | 0.0661 | – |
| R87L | – | 0.0636 | 0.0641 | 0.0494 | – | – | – | – | 0.0556 | 0.0971 | 0.0638 | 0.0988 | – | – | – | 0.0779 | 0.0712 | 0.0834 |
| R87M | – | 0.0551 | – | 0.0612 | – | 0.0647 | – | 0.0733 | – | – | – | – | – | 0.0818 | – | – | – | – |
| R87E | – | 0.0728 | – | 0.0654 | – | 0.042 | – | 0.0775 | 0.0597 | – | – | 0.117 | – | – | 0.0745 | – | – | – |
| K90D | – | 0.0805 | 0.0795 | 0.105 | – | 0.0643 | – | – | 0.0642 | 0.143 | 0.0637 | 0.134 | – | – | – | – | – | – |
| P89I | – | 0.0699 | 0.0405 | 0.0423 | 0.0448 | 0.058 | 0.0679 | 0.0705 | 0.0495 | – | – | 0.0816 | – | – | 0.0552 | – | 0.0394 | – |
| S182D | 0.0682 | – | – | 0.0618 | 0.0767 | – | – | – | – | 0.0613 | 0.0868 | 0.0626 | – | 0.0175 | 0.0488 | – | – | – |
| Y34D | – | 0.0644 | – | 0.0632 | – | 0.0499 | 0.0657 | – | – | – | – | 0.0795 | 0.0358 | 0.0468 | – | 0.0489 | – | – |
| Y34M | – | 0.0692 | 0.0644 | 0.0646 | 0.0853 | 0.0777 | 0.064 | 0.0734 | – | – | 0.0525 | – | 0.0887 | – | – | – | – | 0.0643 |
| R51V | – | 0.0563 | 0.098 | 0.0797 | 0.0896 | 0.0502 | 0.0544 | 0.0732 | 0.0618 | 0.0808 | 0.0497 | 0.109 | 0.0985 | 0.0601 | – | – | – | 0.0687 |
| F41M | – | 0.0562 | 0.0795 | 0.0613 | 0.0997 | – | 0.0659 | 0.0756 | 0.0735 | 0.135 | – | 0.162 | 0.0832 | 0.0658 | 0.0537 | 0.0824 | 0.0581 | 0.0954 |
| K98H | – | 0.0608 | 0.0597 | 0.0681 | 0.101 | 0.0664 | 0.0732 | 0.0425 | 0.0593 | 0.114 | 0.0567 | 0.129 | – | 0.0654 | – | – | – | 0.112 |
| I19D | – | 0.0503 | 0.0435 | 0.0556 | 0.0412 | 0.0422 | 0.0526 | 0.0455 | 0.0512 | 0.0497 | 0.0573 | 0.0474 | 0.045 | 0.0247 | 0.0491 | 0.0399 | 0.0491 | – |
| H62E | – | 0.0684 | 0.0584 | 0.0652 | 0.0776 | – | – | – | 0.0696 | – | – | 0.132 | 0.0761 | 0.0505 | 0.0673 | 0.0974 | 0.0537 | 0.0558 |
| G54P | – | 0.0495 | 0.0574 | – | 0.0285 | 0.0671 | 0.0595 | – | – | – | – | – | 0.0556 | 0.0532 | – | – | – | – |

| Variant | area with substrate ENLYCQS | area with substrate ENLYDQS | area with substrate ENLYGQS | area with substrate ENLYHQS | area with substrate ENLYMQS | area with substrate ENLYNQS | area with substrate ENLYPQS | area with substrate ENLYSQS | area with substrate ENLYEQS | area with substrate ENLYIQS | area with substrate ENLYQQS | area with substrate ENLYVQS | area with substrate ENLYWQS | area with substrate ENLYKQS | area with substrate ENLYRQS | area with substrate ENLYTQS | area with substrate ENLYYQS | area with substrate ENLYLQS |
| --- | --- | --- | --- | --- | --- | --- | --- | --- | --- | --- | --- | --- | --- | --- | --- | --- | --- | --- |
| F49L | – | 0.078 | – | – | – | – | 0.0637 | – | 0.0593 | 0.0516 | – | – | – | – | 0.077 | – | – | – |
| G35H | – | 0.0334 | 0.0486 | 0.0545 | 0.0525 | 0.0382 | 0.0402 | 0.0423 | 0.0389 | – | 0.0273 | 0.0329 | – | – | – | – | 0.047 | – |
| G35F | – | 0.0445 | 0.0339 | 0.0467 | – | 0.0453 | – | – | 0.0496 | 0.0488 | – | – | – | – | 0.0571 | – | – | – |
| R102S | – | 0.0546 | 0.0462 | 0.0477 | 0.0537 | 0.0571 | 0.0461 | 0.0614 | 0.0481 | 0.0637 | 0.056 | 0.0508 | 0.0571 | 0.0492 | 0.044 | – | – | – |
| R102L | – | 0.048 | 0.0612 | 0.0589 | 0.048 | 0.0483 | 0.0392 | 0.0503 | 0.0503 | 0.0635 | – | 0.0534 | 0.0545 | – | – | – | 0.0588 | – |
| F173P | 0.098 | 0.0815 | 0.0709 | – | – | – | – | 0.0698 | 0.0525 | – | 0.0355 | – | 0.0653 | 0.0724 | 0.0832 | – | – | – |
| S169L | 0.0533 | 0.0722 | 0.0609 | – | – | 0.062 | 0.0575 | – | – | – | 0.0842 | 0.0597 | – | – | – | – | 0.0647 | 0.0329 |
| S169V | 0.0997 | – | – | 0.0737 | – | 0.0585 | 0.0466 | – | 0.0591 | – | – | 0.0637 | – | 0.0709 | 0.0492 | – | – | – |
| D82S | – | 0.039 | – | 0.0616 | – | – | – | – | – | 0.0615 | – | – | – | 0.0706 | 0.064 | – | – | – |
| F95P | – | 0.0776 | – | 0.0457 | – | – | 0.0351 | 0.0485 | 0.0516 | – | 0.0516 | 0.0576 | 0.0575 | – | 0.0395 | 0.0443 | – | – |
| M188H | 0.0374 | – | 0.0737 | – | – | – | 0.0786 | – | 0.0619 | 0.16 | – | – | 0.0807 | – | – | 0.0665 | – | 0.0825 |
| G37D | – | 0.0563 | 0.0418 | 0.052 | 0.0432 | 0.0332 | 0.0381 | 0.043 | 0.0475 | 0.0451 | 0.023 | 0.0384 | 0.0276 | 0.0472 | 0.0392 | 0.0421 | – | – |
| F92M | – | 0.0621 | – | 0.0635 | – | 0.068 | – | 0.0994 | 0.0661 | – | – | 0.134 | – | – | – | – | – | – |
| F92W | – | 0.0515 | – | 0.11 | – | – | – | 0.0688 | 0.0706 | 0.112 | – | – | – | 0.0452 | 0.06 | – | 0.0597 | – |
| T72L | – | 0.0649 | 0.0573 | – | – | 0.0404 | 0.0587 | – | 0.0475 | 0.136 | – | – | – | – | 0.0787 | – | 0.0542 | 0.0769 |
| T72I | – | 0.0476 | – | – | 0.0808 | 0.0786 | – | 0.0762 | 0.0528 | – | 0.0321 | – | 0.0812 | 0.0496 | 0.0491 | – | 0.073 | – |
| D27H | – | 0.062 | 0.0517 | 0.0765 | 0.0799 | 0.0621 | – | 0.0554 | – | – | – | – | 0.082 | – | – | 0.0852 | – | – |
